The whole screen tested about 280,000 compounds, of which about 100 (0.036%) were called active. The inconclusive results got no clear call from the source; some entries with a clear call stand among them for comparison. The call rests on the fitted dose curve; in most records, active means well fitted inhibition curve with a large enough effect in the signal ratio, with a control signal flat (not every such curve was filed as active); inconclusive means small, poorly fitted or top-dose-only effect, or effect the other way, or a change in a side signal; inactive means no such curve, though single readings can be large or run the other way; the % refers to the signal ratio. Where the call is inconclusive, the potency comes from a doubtful curve fit. A note “side channel” means that the fit belongs to a control or component signal, not to the main read-out.
biological target: Muscleblind-like protein 1 (Homo sapiens) (UniProt Q9NR56); assay: qHTS Assay for Inhibitors of MBNL1-poly(CUG) RNA binding; settings: TR-FRET MBNL1-His/biotin-(CUG)12 binding, 665/545 ratio; series mostly up to 57.5 µM
Sequence of UniProt Q9NR56 (Q9NR56 whole entry, looked up): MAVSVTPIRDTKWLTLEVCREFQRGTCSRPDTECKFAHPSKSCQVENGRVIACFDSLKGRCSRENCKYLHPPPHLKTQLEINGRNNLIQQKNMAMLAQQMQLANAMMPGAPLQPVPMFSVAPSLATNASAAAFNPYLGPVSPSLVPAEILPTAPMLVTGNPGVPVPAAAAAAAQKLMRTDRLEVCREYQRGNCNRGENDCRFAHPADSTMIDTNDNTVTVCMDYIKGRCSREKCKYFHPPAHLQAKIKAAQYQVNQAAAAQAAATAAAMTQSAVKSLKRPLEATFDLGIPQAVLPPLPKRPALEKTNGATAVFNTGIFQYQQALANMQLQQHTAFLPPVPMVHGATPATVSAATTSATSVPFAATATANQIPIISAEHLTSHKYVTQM
In short: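 Compounds (final 92 nM to 58 uM) are added to His-tagged MBNL1 and biotin-(CUG)12, then terbium anti-His antibody and streptavidin-XL665 (5 nM final). After 60 min at room temperature, the 665/545 nm ratio is read.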
Potency means the concentration at half of the fitted maximal effect; tags describe the fitted curve by direction and shape or compound fluorescence and quenching.

Compound | Potency
Cc1ccc(Nc2n[nH]c(C)c2[N+](=O)[O-])c(C)c1 | inconclusive: 2 µM [quencher, side channel, partial curve]
COc1cc(C2NC(=O)C(C#N)=C(S)N2c2ccccc2)ccc1OC(C)C (stereo not drawn) | inactive
CC(C)CCNCC1OCc2ccccc2CO1 | inconclusive: 35.5 µM [fluorescent, side channel, single point]
CCn1c(=N)c(C(=O)NC)cc2c(=O)n3cccc(C)c3nc21 | inconclusive: 3.55 µM [quencher, full curve]
Cc1ccc(NC(=O)NC2(C(=O)NCc3ccccc3)CCCCC2)cc1 | inconclusive: 3.55 µM [quencher, side channel, single point]
COc1ccccc1NC(=S)NNC(=S)Nc1ccc(OC(F)F)cc1 | inactive
Cc1[nH]ncc1N=Cc1ccc([N+](=O)[O-])cc1 | inconclusive: 12.6 µM [quencher, side channel, partial curve]
C#CCOC(=O)CN1C(=O)c2cccc3cccc(c23)C1=O | inconclusive: 15.8 µM [quencher, side channel, partial curve]
Cc1ccc(C(=O)CSc2nnc(-c3ccccc3N)n2C)cc1C | inconclusive: 0.794 µM [quencher, side channel, full curve, poor fit]
N#Cc1ccc(OCC(O)CN2CCN(C(c3ccccc3)c3ccccc3)CC2)cc1 (stereo not drawn) | inactive
Cc1cc(O)c(C=O)c2c1C(=O)Oc1c(CO)c(O)c3c(c1O2)C(O)OC3=O (stereo not drawn) | inconclusive: 50.1 µM [inhibitor, single point]
COc1ccccc1/C=C/C=N/n1c(-c2ccc(C)cc2)n[nH]c1=S | inactive
COc1ccc(-n2c(SC(C)C(=O)N3CCOCC3)nc3ccccc3c2=O)cc1 (stereo not drawn) | inconclusive: 39.8 µM [fluorescent, single point]
Cc1cccc(C)c1-n1nnnc1S(=O)(=O)Cc1ccccc1Cl | inactive
CC(C)C(=O)N1CCN(c2ccccc2NC(=O)c2ccc([N+](=O)[O-])o2)CC1 | inconclusive: 12.6 µM [quencher, side channel, partial curve]
CCC(C)(C)n1nnnc1CN(Cc1ccc(Cl)cc1)Cc1ccco1 | inconclusive: 6.31 µM [fluorescent, side channel, partial curve]
CNC(=O)/C(C#N)=C/c1ccc(-c2ccccc2[N+](=O)[O-])o1 | inconclusive: 5.01 µM [quencher, side channel, partial curve]
COc1ccc(/C=C(/NC(=O)c2cccc([N+](=O)[O-])c2)C(=O)O)cc1 | inconclusive: 28.2 µM [quencher, side channel, partial curve]

Source: PubChem BioAssay AID2675 (National Center for Advancing Translational Sciences (NCATS), 2010)
